Experimental data as given in the supplement of paper PMC3724861.
The list shows a part of the results.

test system: T1, Caupolican (Caup) homeodomain DNA-binding domain; experiment: PBM E-score (8-mer, recovered from the published 9-mer minima) (E-score (dimensionless, -0.5 to 0.5)); Drosophila protein; higher = stronger relative binding preference, active = 0.31 or more
T1 sequence: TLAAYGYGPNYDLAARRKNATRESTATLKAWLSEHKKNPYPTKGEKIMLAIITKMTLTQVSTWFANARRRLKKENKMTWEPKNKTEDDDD
How it was run: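 Caup's homeodomain DNA-binding domain (residues 214-303) was made by in vitro transcription and translation and applied at 100 nM to custom-designed protein binding microarrays. Each value is an enrichment score that gives relative binding preference for a short DNA word, with higher meaning stronger. The 8-mer values were recovered from published 9-mer scores, each of which was the minimum of its two constituent 8-mer scores. A cutoff of 0.31 marks candidate sites.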

| Sequence | PBM E-score |
| --- | --- |
| AAATACTA | inactive: 0.0932 |
| ATTGACAA | inactive: 0.289 |
| CCAGCAAA | inactive: 0.0234 |
| TATACCGA | inactive: 0.107 |
| AAGCCTGC | inactive: -0.156 |
| CACGTAAG | inactive: 0.0839 |
| CCGCTGTC | inactive: -0.0395 |
| GAGGACCC | inactive: -0.242 |
| GATGAAGC | inactive: 0.0263 |
| TCTACCCA | inactive: -0.0395 |
| GGCTCGAA | inactive: -0.138 |
| GTCTGGTA | inactive: 0.149 |
| CGTATGAC | inactive: 0.132 |
| CATGGGTA | inactive: 0.068 |
| ATAATCAG | inactive: 0.101 |
| AAAAGCAC | inactive: -0.0868 |
| ACACGTTA | inactive: 0.29 |
| AAAAATTC | ≥ 0.174 |
| ACCATAGC | inactive: -0.0174 |
| ATTAGCCG | inactive: -0.0126 |
| CTTGTTGC | inactive: 0.269 |
| TAACAACA | active: 0.406 |
| CACCTCCA | inactive: -0.0471 |
| CACGTGCG | inactive: -0.0115 |

| Sequence | PBM E-score |
| --- | --- |
| GTATTGTA | inactive: 0.277 |
| TAGGATGA | inactive: -0.0023 |
| ATAGTTAG | inactive: 0.00654 |
| ATGTAGAC | inactive: 0.267 |
| ATATTGTA | ≥ 0.306 |
| CCTTACCG | inactive: -0.0775 |
| AGCATGCA | ≥ 0.122 |
| AGACACCT | inactive: 0.0759 |
| CACTAATA | inactive: 0.118 |
| CTCAAGAG | inactive: -0.197 |
| AGCTCTAA | inactive: -0.00541 |
| CTGCGACA | inactive: 0.117 |
| GGGCTACC | inactive: -0.2 |
| CACACGGA | inactive: 0.00106 |
| CATCGATG | inactive: 0.131 |
| AAGCCAAG | inactive: -0.144 |
| ATTGGACA | inactive: 0.289 |
| CAATGATC | inactive: 0.0114 |
| ATAGTACG | inactive: 0.0984 |
| CCACGGGC | inactive: -0.226 |
| AGATTAAC | inactive: 0.051 |
| ATACCAGG | inactive: 0.132 |
| CCCGCTCG | inactive: -0.208 |
| CTCTCAGC | inactive: -0.19 |

| Sequence | PBM E-score |
| --- | --- |
| AGTTTGAA | inactive: 0.0767 |
| ACCGCAGC | inactive: -0.241 |
| GTTTAAGA | inactive: -0.0184 |
| ACGCAGAA | inactive: -0.00806 |
| ACAATTGA | inactive: 0.191 |
| AGCAGGTC | inactive: -0.0493 |
| AGACTGCA | inactive: 0.0445 |
| GTTTTAGA | inactive: 0.0271 |
| CCTAAAGG | inactive: -0.131 |
| AGCTGCAG | inactive: -0.122 |
| ATCACTCG | inactive: 0.079 |
| CCAGGATC | inactive: -0.129 |
| CCCAAATC | inactive: -0.0496 |
| CCAGTCCA | inactive: -0.134 |
| CATCTGTC | inactive: 0.0767 |
| AACAGGAA | inactive: 0.178 |
| CTATTATA | inactive: 0.0993 |
| ATGTTAGA | active: 0.329 |
| CTAACACA | inactive: 0.276 |
| CCCGAGCC | inactive: -0.232 |
| CCACTACC | inactive: -0.0803 |
| CCTCCGAC | inactive: -0.179 |
| GGAGCGCC | inactive: -0.303 |
| AACTACGA | inactive: 0.0922 |

| Sequence | PBM E-score |
| --- | --- |
| TCGCCCCA | inactive: -0.176 |
| GCTCCTTA | inactive: -0.124 |
| TATTGGCA | ≥ 0.106 |
| CACTAGGA | inactive: -0.0624 |
| AAGCACTA | ≥ 0.116 |
| AAAAACCG | inactive: 0.0642 |
| TGCAGGAA | inactive: -0.0534 |
| CCTAATTC | inactive: 0.0704 |
| ATAGGCTA | inactive: -0.013 |
| CTAGACAC | inactive: 0.16 |
| GTAGATTA | inactive: 0.179 |
| GAAGAGAA | inactive: -0.154 |
| AATTTCGA | inactive: 0.027 |
| ATAGGAGC | inactive: -0.0144 |
| TATCTGAA | inactive: -0.0172 |
| CTCGACCC | inactive: -0.12 |
| AAGACGGA | inactive: -0.102 |
| GTTAACAA | inactive: 0.296 |
| AACAGTTC | inactive: 0.133 |
| CTCTTTGC | inactive: -0.105 |
| CAACTTTC | inactive: -0.00516 |
| GAGAGGTA | inactive: -0.0933 |
| CGGTGCAG | inactive: -0.165 |
| GGACCCCA | inactive: -0.21 |

| Sequence | PBM E-score |
| --- | --- |
| ACCTCTAC | inactive: 0.00374 |
| CATTGTCC | inactive: 0.156 |
| ACATCGTC | inactive: 0.251 |
| AATACTTC | inactive: 0.0482 |
| CGTAACCC | inactive: -0.126 |
| CCGATTAA | inactive: 0.0142 |
| GCCGTCCC | inactive: -0.25 |
| ACTCGACG | inactive: 0.1 |
| CCTCGGAC | inactive: -0.125 |
| GCCTCCGC | inactive: -0.247 |
| GTCGCACA | inactive: 0.00747 |
| GCGCCAAA | inactive: -0.211 |
| CATATGGG | inactive: -0.03 |
| CGATGAAA | inactive: -0.0122 |
| AGTAAACG | inactive: 0.0864 |
| AGATGCCT | ≥ 0.0242 |
| CAAATCAC | inactive: -0.00324 |
| AACATCGA | ≥ 0.297 |
| CCGTTAAA | inactive: 0.0231 |
| AGTCCTTA | inactive: -0.00086 |
| CTCAGAAC | inactive: 0.0358 |
| CACAGCCG | inactive: -0.0958 |
| GCCAGGGA | inactive: -0.243 |
| ATCACAAA | inactive: 0.124 |

| Sequence | PBM E-score |
| --- | --- |
| AGCGTGGA | inactive: -0.121 |
| GGGGTAAC | inactive: -0.00369 |
| CGGTTCAA | inactive: -0.15 |
| GGAGCTCA | inactive: -0.154 |
| ACAGGCTC | inactive: 0.0024 |
| ATTGCTAG | inactive: 0.0556 |
| CGTGCCAC | inactive: -0.136 |
| GCTTTCAA | inactive: -0.0115 |
| CGTGTTAA | active: ≥ 0.33 |
| GGCACACA | inactive: 0.00306 |
| CATCCGAG | inactive: 0.0288 |
| CGGCTACG | inactive: -0.194 |
| ACAAAGGG | inactive: -0.0556 |
| GAGTCTAA | inactive: -0.0512 |
| CGACAGAA | inactive: 0.0952 |
| ATGTTTAA | active: 0.367 |
| AGAGAACG | inactive: 0.0198 |
| ATACTGTC | inactive: 0.0971 |
| AGGCGCGC | inactive: -0.21 |
| CTCCTGCA | inactive: -0.135 |
| AGAAGTCA | inactive: 0.0275 |
| AAGGGTTA | inactive: 0.0113 |
| AAATAATT | inactive: 0.163 |
| GCGCCCCC | inactive: -0.316 |
